# Some of the results follow.
# Biological target: no compound (DMSO)
# Assay: log2 fold change of degron read counts, EGFP-low vs EGFP+ sorted cells; higher = lower degron-EGFP level without compound (poor expression or instability)
# Conditions: compound: DMSO control; 18 h
# 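Further: jurkat cells carrying a lentiviral library of mutant zinc finger degrons fused to EGFP plus mCherry, mCherry+ cells FACS sorted, degron abundance counted by next-generation sequencing.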
row,Sequence,log2 fold change of degron read counts
1,FQCEICGACFTQKGNLLRHIKL,-1.98
2,FDCPVCGAMFTQKGNLLRHIKL,-0.527
3,FCCPVCGAFFTQKGNLLRHIKL,0.842
4,FKCNQCGHKFTQKGNLLRHIKL,-0.998
5,FHCSVCGHVFTQKGNLLRHIKL,-0.26
6,FKCNICGADFTQKGNLLRHIKL,-0.682
7,LACPICGFMCTQKGNLLRHIKL,0.962
8,LSCNQCGFTCTQKGNLLRHIKL,0.398
9,FSCPVCGAKFTQKGNLLRHIKL,-0.677
10,FMCPQCGANFTQKGNLLRHIKL,-0.956
11,FFCPICGARFTQKGNLLRHIKL,-0.105
12,FDCNQCGAAFTQKGNLLRHIKL,-0.41
13,LWCNQCGFMCTQKGNLLRHIKL,2.07
14,FFCDVCGAFFTQKGNLLRHIKL,0.382
15,FDCEICGHCFTQKGNLLRHIKL,-0.532
16,FACNQCGAQFTQKGNLLRHIKL,-1.1
17,LRCEICGFLCTQKGNLLRHIKL,0.452
18,LDCNQCGFACTQKGNLLRHIKL,0.573
19,FGCNQCGAIFTQKGNLLRHIKL,0.602
20,FKCNVCGALFTQKGNLLRHIKL,-0.354
21,FQCDQCGAVFTQKGNLLRHIKL,-1.21
22,FCCNQCGHLFTQKGNLLRHIKL,0.489
23,FICDICGAYFTQKGNLLRHIKL,-0.485
24,LGCEICGFMCTQKGNLLRHIKL,1.05
25,FNCNQCGHIFTQKGNLLRHIKL,0.808

row,Sequence,log2 fold change of degron read counts
1,FFCNVCGAHFTQKGNLLRHIKL,0.058
2,FMCNQCGAIFTQKGNLLRHIKL,0.661
3,FACEICGRQFTQKGNLLRHIKL,-0.929
4,FDCEICGRMFTQKGNLLRHIKL,-0.438
5,FFCEQCGADFTQKGNLLRHIKL,-1.26
6,FNCDICGAAFTQKGNLLRHIKL,-0.671
7,FVCNQCGRGFTQKGNLLRHIKL,-1.59
8,FHCDQCGACFTQKGNLLRHIKL,-1.87
9,FHCSVCGHIFTQKGNLLRHIKL,0.314
10,LECNQCGFKCTQKGNLLRHIKL,-0.961
11,LQCNQCGFWCTQKGNLLRHIKL,0.791
12,FSCEICGHLFTQKGNLLRHIKL,-0.425
13,FNCNQCGHPFTQKGNLLRHIKL,-0.831
14,FSCNICGAYFTQKGNLLRHIKL,1.01
15,FWCNVCGACFTQKGNLLRHIKL,0.366
16,FICEICGHMFTQKGNLLRHIKL,-1.87
17,FQCNICGALFTQKGNLLRHIKL,-0.835
18,LQCPICGFRCTQKGNLLRHIKL,0.0683
19,FNCNQCGRRFTQKGNLLRHIKL,0.241
20,FCCEICGHSFTQKGNLLRHIKL,-1.5
21,FSCEICGHMFTQKGNLLRHIKL,-1.26
22,LFCEICGFRCTQKGNLLRHIKL,0.58
23,FTCSVCGHQFTQKGNLLRHIKL,-1.58
24,LSCPICGFTCTQKGNLLRHIKL,-0.147
25,LECPICGFSCTQKGNLLRHIKL,0.119

# — the supplement of paper PMC12645437, “Orthogonal IMiD-Degron Pairs Induce Selective Protein Degradation in Cells” (ACS Chemical Biology, 2025)
